Data reported in PubChem BioAssay AID485344 (National Center for Advancing Translational Sciences (NCATS), 2010).
Among all 340,000 compounds or so, about 6,900 (2%) were called active. Cut-off read from the data, not from the text of the source: active = inhibition above about 30%; inactive = below that, where a call was filed. The list shows a part of the results, in another mix than the full data. Where no call is shown, the source filed none.

What follows are molecules tested against D(2) dopamine receptor (Homo sapiens) (UniProt P14416) (assay: HTS Assay for Allosteric Antagonists of the Human D2 Dopamine Receptor: Primary Screen for Antagonists). Settings: HEK293 TREx D2 cells, calcium flux, dopamine EC80; at 10 µM; stronger effect = higher value.
How it was run: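 In this primary screen, negative modulation is detected by tracking calcium flux after an EC80 dopamine challenge in inducible HEK293 T-REx D2 cells preexposed to test compound for 180 s.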
Note: 0% is about no effect.

Sequence of UniProt P14416 (P14416 whole entry, looked up): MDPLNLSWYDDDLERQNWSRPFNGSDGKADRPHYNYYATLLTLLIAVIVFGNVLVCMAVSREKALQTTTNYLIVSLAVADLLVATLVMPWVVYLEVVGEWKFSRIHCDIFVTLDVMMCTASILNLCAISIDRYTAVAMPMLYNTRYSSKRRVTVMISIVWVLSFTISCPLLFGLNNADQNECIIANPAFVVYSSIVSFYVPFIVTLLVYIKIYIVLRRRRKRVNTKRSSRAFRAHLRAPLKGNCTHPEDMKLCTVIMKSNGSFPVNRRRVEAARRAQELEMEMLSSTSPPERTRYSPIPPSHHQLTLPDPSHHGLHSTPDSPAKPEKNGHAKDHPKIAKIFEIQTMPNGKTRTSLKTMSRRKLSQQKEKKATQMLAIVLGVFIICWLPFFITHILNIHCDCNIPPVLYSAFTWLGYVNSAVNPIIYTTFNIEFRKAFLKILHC

Question: For `Cc1ccc(NC(=O)CSc2nc3ccccc3c3nc(CCc4c(C)n[nH]c4C)nn23)c(C)c1`, which inhibition is on record?
Answer: 7.15%

Question: With `CCOC(=O)c1cnc2c(ccc3ccccc32)c1Nc1ccccc1OC` as the molecule, how does the inhibition read?
Answer: -9.96%

Question: Which inhibition does the source give for `CC(C)CCOC(=O)C1C2C=CC3(CN(Cc4cccs4)C(=O)C13)O2` (configuration not stated) here?
Answer: active: 33.2%

Question: How did the inhibition turn out when `Cc1ccc(S(=O)(=O)CCC(=O)Nc2ccc(Br)cc2C)cc1` was run?
Answer: 5.83%

Question: `COc1ccc(NC(=O)Cn2c(=O)cc(C)c3c(C)nn(-c4cccc(Cl)c4C)c32)cc1OC` was tested. Which inhibition did it give?
Answer: -23.9%

Question: For `O=C(NC1CC(=O)N(c2ccc3c(c2)OCCO3)C1)c1c(F)cccc1Cl` (configuration not stated), which inhibition is on record?
Answer: 22.8%

Question: `O=C(NCCc1csc(-c2ccc(F)cc2)n1)c1cccs1` was tested. Which inhibition did it give?
Answer: 2.93%

Question: How did the inhibition turn out when `CCOC(=O)c1cc(-c2ccccc2)n(CC(=O)NC2CCC(C)CC2)c1C` (configuration not stated) was run?
Answer: 19.6%

Question: With `COc1ccc(-c2noc(CSc3nnc(Cc4ccccc4)n3-c3ccccc3)n2)cc1OC` as the molecule, how does the inhibition read?
Answer: 0.299%

Question: How did the inhibition turn out when `Cc1ccc2[nH]c(C(=O)Nc3ccccc3)cc2c1` was run?
Answer: 1.71%

Question: For `CCOc1cc(C2NC(=O)c3c(sc4c3CCN(C)C4)N2)ccc1OC(=O)c1ccccc1Cl` (configuration not stated), which inhibition is on record?
Answer: 9.81%

Question: Which inhibition does the source give for `Cc1ccc(CN2COc3cc(C)c4c(oc(=O)c5ccccc54)c3C2)cc1` here?
Answer: 7.2%

Question: With `CN1CCN(CCCNC(=O)Cn2c(-c3cccs3)cc3cc(Cl)ccc32)CC1` as the molecule, how does the inhibition read?
Answer: -1.6%

Question: How did the inhibition turn out when `Cc1cc(-c2cc(C(=O)NC3CCCC3)on2)nc(NCC2CC2)n1` was run?
Answer: active: 33.4%

Question: With `Cc1ccc(-c2[nH]c(-c3ccc(Cl)cc3)nc2SCC(=O)NCC2CCCO2)cc1` (configuration not stated) as the molecule, how does the inhibition read?
Answer: active: 60.9%

Question: For `CCOc1ccc(NC(=O)c2cnn(-c3ccc(C)c(Cl)c3)c2C2CCNCC2)cc1`, which inhibition is on record?
Answer: -1.09%

Question: With `COc1cc(OC)c(NC(=O)C(NS(=O)(=O)c2cccc3nsnc23)c2ccccc2)cc1Cl` (configuration not stated) as the molecule, how does the inhibition read?
Answer: -10.9%

Question: For `COCC(C)NC(=O)c1cnn2c(C(F)F)cc(-c3ccccc3)nc12` (configuration not stated), which inhibition is on record?
Answer: -1.04%

Question: For `CN(C(=O)Cn1cc(S(=O)(=O)N2CCN(c3ccccc3F)CC2)c2ccccc2c1=O)c1ccc(Cl)cc1`, which inhibition is on record?
Answer: -5.28%

Question: For `O=C(NCCCN1CCN(c2ccccc2F)CC1)c1cc2c(Cl)nc3ccccc3c2s1`, which inhibition is on record?
Answer: -22.6%

Question: For `CC(NS(=O)(=O)c1ccc(OCC(=O)N2CCOCC2)cc1)c1ccccc1` (configuration not stated), which inhibition is on record?
Answer: active: 30.5%

Question: Which inhibition does the source give for `Cc1ccc(C(=O)Nc2ccccc2C(=O)O)cc1S(=O)(=O)N1CCCCCC1` here?
Answer: -21.3%

Question: With `CCCCCOc1ccc(NC(=O)Cc2csc(C)n2)cc1` as the molecule, how does the inhibition read?
Answer: -19.7%

Question: `O=C(Nc1sc2c(c1C(=O)Nc1ccc(Cl)cc1)CCCC2)c1cccs1` was tested. Which inhibition did it give?
Answer: 4.98%

Question: Which inhibition does the source give for `Cc1nnc(SCc2ccccc2Cl)c2cc3sccc3n12` here?
Answer: 5.41%

Question: With `CC(=O)c1ccc(NC(=O)c2cc(-c3ccc4c(c3)OCO4)on2)cc1` as the molecule, how does the inhibition read?
Answer: 6.15%

Question: How did the inhibition turn out when `CCc1ccc(-c2nc(CN3CCCC(C(=O)NCc4ccc(C)cc4)C3)c(C)o2)cc1` (configuration not stated) was run?
Answer: -4.08%
